Here are results for one molecule from publication PMC11321632, “SIRT5‐Mediated Desuccinylation of RAB7A Protects Against Cadmium‐Induced Alzheimer's Disease‐Like Pathology by Restoring Autophagic Flux” (Advanced Science, 2024).

This test addresses T1, Sirtuin 5 (SIRT5), recombinant mouse protein (mouse, UniProt Q8K2C6 37-310).
T1 construct: Sirtuin 5 (SIRT5), mouse, recombinant; Made and measured by a contract laboratory (TopScience); source: 293F cells, purified
T1 sequence (looked up): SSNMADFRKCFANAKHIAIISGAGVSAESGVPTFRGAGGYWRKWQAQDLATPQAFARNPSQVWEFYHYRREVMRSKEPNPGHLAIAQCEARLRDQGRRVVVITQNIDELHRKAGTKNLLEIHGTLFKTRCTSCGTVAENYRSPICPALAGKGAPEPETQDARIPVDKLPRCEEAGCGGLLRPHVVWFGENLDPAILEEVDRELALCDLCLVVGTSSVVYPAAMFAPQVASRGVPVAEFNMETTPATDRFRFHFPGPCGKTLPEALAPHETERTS
The test can be described thus: MST; Monolith NT.115 (NanoTemper); recombinant mouse proteins purified from 293F cells; which partner was labelled is not told. The following applies: both partners purified.

B1: Lysosomal Ras-associated protein 7a (RAB7A), recombinant mouse protein (natural protein)
chain: not shown
notes: Ras-associated protein 7a (RAB7A), mouse, recombinant; Made and measured by a contract laboratory (TopScience); source: 293F cells, purified
Consider B1, for which the Kd was around 1.43 nM.

As usually defined, the Kd is the equilibrium constant for the complex coming apart.
